Measurements as given in the RNAGym collection of RNA variant scans (doi:10.7554/elife.90254).
The source gives no read counts; variants with many changes may rest on few reads.

B1: LINE1-mini (parent)
chain: GGCAGAGCUCAACACAGCGUGGCAAAGUGGCUGUGGCUAGACUGCC

Variants of: B1
Experiment: self-cleavage, relative activity (ratio to wild type); higher = more cleavage; in vitro, sequencing; the parent is a self-cleaving ribozyme

Variant | self-cleavage
GGCAGCGCUCAACAUAGCGUGACUAAGUGGCUGUGGCUAGACUGCC [A6C C15U G22A A24U] | 1.77
GGCAGCACUCAACACAGUGUUGCAAGGUGGUUUUGGCUAAACUGCC [A6C G7A C18U G21U A26G C31U G33U G40A] | 0.02
GGCAGCGCUCAACACAGCGUUGCAAAGUGGCUGUGGCUCGACUCCC [A6C G21U A39C G44C] | 0.05
GGCAGCGCUCAACUCAGCGCGGCAAAGUGGCUGUGGCCAGACUGCC [A6C A14U U20C U38C] | 0.02
GGCAGCGCUCAACACAGCGUGGCAAUGUGGCUAUGGCUAGACUGCC [A6C A26U G33A] | 0.04
GGCAGCGCUCAACUCAACGUGGCAAGGUGGCUGUGGCUAGACUGCC [A6C A14U G17A A26G] | 0.15
GGCAGCGCUCAACACAGCGUGUCAAAGAGGCUGUGGCUAGACUGCU [A6C G22U U28A C46U] | 0.98
GGCAGCAGUCAACUCAGCGUGUUAAAGUGGCUGUGGCGAGAGUGCC [A6C G7A C8G A14U G22U C23U U38G C42G] | 0.23
GGCAGCGCUCAACAUAGCGUGGCAAAGUGGCUAUGGCUAGACUGCC [A6C C15U G33A] | 1.18
GGCAGCGCUCAACACACCGUGGCAAAGUGACCGUGGCUAGACUGCC [A6C G17C G30A U32C] | 0.31
GGCAGCGGUCAACACAGCGUGGCAAAGUCGCUGUGGCUAGACUGCC [A6C C8G G29C] | 0.05
GGCAGCGUUCAACCGAGCGUGGCAAAGUGGCUGUGGCUAGACUGCC [A6C C8U A14C C15G] | 0.03
GGCAGCGCUCAAAACUGAGUGGCAAGGUGGCUGUGGCUAGACUGCC [A6C C13A A16U C18A A26G] | 0.08
GGCAGCGCUCAACAGGUCGUGACUAAGUGGUUGUGGCUAGACUGCC [A6C C15G A16G G17U G22A A24U C31U] | 0.02
GGCAGCGCUCAACACAGCGUGGCAAAGUGGCUGUGGCUAGACUCCG [A6C G44C C46G] | 0.02
GGCAGCACUCAACACAGCGGGGCAAAGUGGCUGUGGCUAGACUGCC [A6C G7A U20G] | 0.1
GGCAGCGAUCAACACAGCGUGGAAAAGUGGCUGUGGCUAGACUGCC [A6C C8A C23A] | 0.27
GGCAGCGCUAAACACAGCGUGGCAAAGUGGAUGUGGCUAGACUGCC [A6C C10A C31A] | 0.04
GGCAGCGCUCAACACAGCGUGGAAAAGUGGCUGUGGCUAGACGGCC [A6C C23A U43G] | 0

Variant | self-cleavage
GGCAGCGCUCAUCACAGCGUGGCAAAGUGGCUGUGACUAGACUGCC [A6C A12U G36A] | 0.03
GGCAGCGCUCAAAACAGCGUGGCAAGGUGGCUGUGGCUAGACUGCC [A6C C13A A26G] | 0.12
GGCAGCGCUCAACACAACGUGGCAAAGUGGCUGAGGCUAGACUGCU [A6C G17A U34A C46U] | 0.01
GGCAGCGCUCAACACAGCGUGCCAAAGUGGCUGUGGCUAGAGUUCC [A6C G22C C42G G44U] | 0.07
GGCAGCGCACAACACAGCUUGGCAAUGUGGCUGCGGCUAGACUGCC [A6C U9A G19U A26U U34C] | 0.04
GGCAGCGCUCAACACAGCGUGGCAUAGUGGCUGUGCCUAGACUGCC [A6C A25U G36C] | 0.07
GGCAGCGCUCAACACAGCGUGGCAAAGUAGCUGCGGCUAGACUGCC [A6C G29A U34C] | 0.15
GGCAGCGGUCAACACAGCGUGGCAAAUUGGCUGUGGCUCGACUGCC [A6C C8G G27U A39C] | 0.08
GGCAGCGCUCAACUCAGAGUGUCAAAGUGGUUGUGGCUAGACGAUC [A6C A14U C18A G22U C31U U43G G44A C45U] | 0
GGCAGCGCUCAACACAGCGUGCCAAAGUGGCUGUUCCUAAACUGCC [A6C G22C G35U G36C G40A] | 0.02
GGCAGCGCUCAACACGGCGUGGCAAAGUGGCUGUGGCUAGACAGCC [A6C A16G U43A] | 0.03
GGCAGCGCUCAACCCAGCCUGGCAACGUGGCUGUGGCUAGAUUGCC [A6C A14C G19C A26C C42U] | 0
GGCAGCACCUAACACAGCGUGGCAAAGUAGCUGUGGUCAGACUGCC [A6C G7A U9C C10U G29A C37U U38C] | 0.01
GGCAGCGCUCAACACAGCGUGGCAAAGUUGCUGUGGCUAGGCUGCC [A6C G29U A41G] | 0.73
GGCAGCUCUCAGCACAGCGUGGCAAACUGGCUGGGGCUAGACUGCC [A6C G7U A12G G27C U34G] | 0.01
GGCAGCUCUCAACACAGCGUGGCAAAGUAGGUGUGGCUAGACUGCC [A6C G7U G29A C31G] | 0.01
GGCAGCGCUCAAAACAGCGUGGGAAAGUGGCUAUGGCUAGACUGCC [A6C C13A C23G G33A] | 0.07
GGCAGCGCUAAACACAGCGUGGCAAAGUGGAUGUGGCUUGACUGCC [A6C C10A C31A A39U] | 0.02
GGCAGCGCUCAACACAACGUGGCAUAGUGGUUGUGGCUAGACUGCC [A6C G17A A25U C31U] | 0.12

Variant | self-cleavage
GGCAGCGCUCAACACAGCGUUGCAAAGUGGCUGUGGCAAGACUUCC [A6C G21U U38A G44U] | 0.01
GGCAGCGCUCAACACAGCGUGGCAAAGUGGCUGUGCCUAGGCUGCC [A6C G36C A41G] | 0.26
GGCAGCGCUCAACACAGCGUGGCAAAUUGGCUCUGGCUAGACUGCC [A6C G27U G33C] | 0.07
GGCAGCGCUCAACCCAGCGUGACAAAGUGGCUGUGGGUAGACUUCC [A6C A14C G22A C37G G44U] | 0.22
GGCAGCGCUCAUCACAGCGUGGCAAAGUGGCUGUGGCUAGAAUGCC [A6C A12U C42A] | 0.14
GGCAGCGCUCAACAUAUAGGGGCAAAGUGUCUGUGGCUAGACUGGC [A6C C15U G17U C18A U20G G30U C45G] | 0.03
GGCAGCGUUCAACACAGCGUGGCAAAGUGACUGUGUCUAGACUGCC [A6C C8U G30A G36U] | 0.51
GGCAGCGCUCAACACAGCGUGGCAAAGUGUAUGUGGCUAGACUGCC [A6C G30U C31A] | 0.06
GGCAGCGCUCAACACAGCGUGGCAAAGUGUUUGUGGCUAGACUGCC [A6C G30U C31U] | 0.06
GGCAGCGCUCAACACUGUGUGGCAAAGUGGCUGUGGCUAGACUGAC [A6C A16U C18U C45A] | 0.04
GGCAGCGUUUAACAUAGCGUGGCAAAGUUGCUGUGUCAAGACUGCC [A6C C8U C10U C15U G29U G36U U38A] | 0.05
GGCAGCGCUCAACACAGCCUGGCAAAUUGGCUGUGGCUAUACUUCC [A6C G19C G27U G40U G44U] | 0.16
GGCAGCGCUCAACACAGCGUGGCUAAGUGGCUGUGGCUAGACUGUC [A6C A24U C45U] | 2.34
GGCAGCGCUCAACUCAUCGUGGCUACGCGGCUGUGGCUAGACUGCC [A6C A14U G17U A24U A26C U28C] | 0.1
GGCAGCGCUAAAUACAGCGUGGCAAAGUGGCUGUGGCUAGACUGCC [A6C C10A C13U] | 0.02
GGCAGCGCUCAACACAGGGCUGCAAAGUGGCUGUGGCUAGACUGCC [A6C C18G U20C G21U] | 0.22
GGCAGCUCCCAACACAUCGUGGCAAAAUGGCAGAGGCUAGACGGCC [A6C G7U U9C G17U G27A U32A U34A U43G] | 0
GGCAGCGCUCAACACAGCGUGGCACAGUGGCUGUUGCUAGACUGCC [A6C A25C G35U] | 0.08
